Data on 24 compounds can be found in PMC4336329 (PLoS ONE, 2015).

Hit rate of the full screen: of about 310,000 compounds, about 14,000 (4.5%) showed an effect of 50% or more. Effects have a minus sign here. Some of the results follow.
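Also: peak tail current of the secondary pulse compared with the same well before compound.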

Sequence of human ether-à-go-go-related gene (hERG) potassium channel (Q12809 whole entry, looked up): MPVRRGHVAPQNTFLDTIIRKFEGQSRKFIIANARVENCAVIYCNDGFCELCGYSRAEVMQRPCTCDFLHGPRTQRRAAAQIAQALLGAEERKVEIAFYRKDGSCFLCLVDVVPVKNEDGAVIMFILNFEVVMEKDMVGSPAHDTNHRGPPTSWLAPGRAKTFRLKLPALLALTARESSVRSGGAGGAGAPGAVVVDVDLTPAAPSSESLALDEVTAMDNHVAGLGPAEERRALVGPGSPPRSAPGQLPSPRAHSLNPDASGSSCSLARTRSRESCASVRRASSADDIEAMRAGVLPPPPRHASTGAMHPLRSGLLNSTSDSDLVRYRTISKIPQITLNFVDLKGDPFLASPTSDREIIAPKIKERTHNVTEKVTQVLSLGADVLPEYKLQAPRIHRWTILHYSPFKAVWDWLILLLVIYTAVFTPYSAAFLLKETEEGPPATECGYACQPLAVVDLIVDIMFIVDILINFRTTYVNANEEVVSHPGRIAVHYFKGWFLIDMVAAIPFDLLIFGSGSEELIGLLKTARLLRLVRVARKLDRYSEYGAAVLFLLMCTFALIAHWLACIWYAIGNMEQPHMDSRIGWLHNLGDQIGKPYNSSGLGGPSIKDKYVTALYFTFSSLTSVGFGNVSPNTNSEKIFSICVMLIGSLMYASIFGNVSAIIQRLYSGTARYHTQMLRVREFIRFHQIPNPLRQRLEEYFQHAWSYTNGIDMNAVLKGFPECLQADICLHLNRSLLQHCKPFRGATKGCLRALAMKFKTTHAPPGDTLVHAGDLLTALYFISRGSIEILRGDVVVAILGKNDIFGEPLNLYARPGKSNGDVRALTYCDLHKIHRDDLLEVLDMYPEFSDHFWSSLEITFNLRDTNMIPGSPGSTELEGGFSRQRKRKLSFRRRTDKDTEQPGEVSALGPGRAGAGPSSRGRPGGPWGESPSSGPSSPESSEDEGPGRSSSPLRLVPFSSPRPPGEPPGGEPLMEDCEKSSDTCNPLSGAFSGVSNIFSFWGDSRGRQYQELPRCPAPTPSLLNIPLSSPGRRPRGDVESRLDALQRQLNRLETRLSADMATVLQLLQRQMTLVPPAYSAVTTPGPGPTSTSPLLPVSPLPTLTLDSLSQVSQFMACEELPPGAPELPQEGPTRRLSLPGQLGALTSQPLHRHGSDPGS

The assay has as its target human ether-à-go-go-related gene (hERG) potassium channel (human, UniProt Q12809). Put plainly: primary screen, population patch clamp on CHO cells stably expressing hERG.
Turning to `COc1ccc(CCCc2nnc(SCC(=O)Nc3ccc(OC)cc3)o2)cc1`, the “hERG current change (%, negative = inhibition) at 10uM” value amounted to 17.7%. `Cc1cc(=O)oc2cc(OCCSc3nnc(-c4ccccc4)o3)ccc12`: the “hERG current change (%, negative = inhibition) at 10uM” value is -3.46%. Regarding `CCCc1cc(=O)[nH]c(SCC(=O)N(C)CC(=O)Nc2ccc(C)cc2)n1`, the “hERG current change (%, negative = inhibition) at 10uM” value is reported as -18.1%. In the case of `CCN(CCCNC(=O)C1CCC(=O)N1Cc1ccccc1Cl)c1cccc(C)c1` (stereo not drawn), the “hERG current change (%, negative = inhibition) at 10uM” value is given as -64.5%.

On to `CN(c1ccc(OCC(=O)N2CCOCC2)cc1)S(=O)(=O)c1ccc(Cl)cc1`, for which the “hERG current change (%, negative = inhibition) at 10uM” value is -12.3%. As to `Cc1ccc(C2NC(=O)c3ccccc3O2)cc1` (stereo not drawn), the “hERG current change (%, negative = inhibition) at 10uM” value worked out at 10.8%. Turning to `CN(c1ccccc1)S(=O)(=O)c1ccc(Cl)c(C(=O)Nc2nc3ccccc3[nH]2)c1`, the “hERG current change (%, negative = inhibition) at 10uM” value is -1.14%. For `O=C(Nc1c(C(=O)N2CCOCC2)cnn1-c1ccccc1Cl)c1ccco1`, the “hERG current change (%, negative = inhibition) at 10uM” value is listed as 9.55%. Next, `O=C(NCCS(=O)(=O)c1ccc(Cl)cc1)c1ccc(F)cc1`: -9.19%. Next, `CN(C)C(=O)CSc1nnc([C@H](Cc2ccccc2)NC(=O)OC(C)(C)C)o1`: 5.98%; `COc1ccccc1C1=NN(C(=S)Nc2ccccc2)C(c2ccco2)C1` (stereo not drawn): 8.37%. For `Cc1cccc(C)c1-n1nnnc1S(=O)(=O)Cc1ccccc1Cl`, the “hERG current change (%, negative = inhibition) at 10uM” value was -18.2%. `O=C(O)c1ccc2c(c1)S(=O)(=O)N=C1CCCCCN12`: the “hERG current change (%, negative = inhibition) at 10uM” value is listed as 14.2%. The result for `CCC(C)(C)NC(=O)C(c1cccc(OC)c1OC)N(C(=O)CCC(=O)Nc1cc(C)on1)C(C)C` (stereo not drawn) reads 13.1%. As for `COc1cccc(NC(=O)COC(=O)CCS(=O)(=O)c2ccc(C)cc2)c1`, the “hERG current change (%, negative = inhibition) at 10uM” value is 0.124%. In the case of `COc1ccc(Nc2nc(C)c(-c3ccccc3)s2)cc1`, the “hERG current change (%, negative = inhibition) at 10uM” value was determined as 14.9%. In the case of `COc1ccc(-c2[nH]ncc2CN2CCN(C(=O)c3cccs3)CC2)c(F)c1`, the “hERG current change (%, negative = inhibition) at 10uM” value is -21.5%. Next, `ONC(=Nc1ccccc1Cl)c1c(F)cccc1F`: 3.32%; `COc1ccc(CNn2c(-c3cccc(C)c3)nc3ccccc3c2=O)cc1OC`: -73.6%; `Cc1cc(C)cc(N(C(=O)c2ccc3c(c2)OCO3)C2C=CS(=O)(=O)C2)c1` (stereo not drawn): -22.6%. As for `CCOC(=O)Nc1ccc([N+](=O)[O-])cc1OC`, the “hERG current change (%, negative = inhibition) at 10uM” value is given as 15.5%.

For the compound `Cn1c(SCC(=O)Nc2ccc(Cl)cc2F)nnc1-c1ccco1`, the “hERG current change (%, negative = inhibition) at 10uM” value is -59.4%. Consider `CN(C)C(CNC(=O)c1cccc(OC(F)F)c1)c1ccco1` (stereo not drawn), for which the “hERG current change (%, negative = inhibition) at 10uM” value is on record as -23.4%. Turning to `O=C(/C=C/c1cccc([N+](=O)[O-])c1)NCc1ccccc1`, the “hERG current change (%, negative = inhibition) at 10uM” value is reported as -23.2%.
